Results taken from PubChem BioAssay AID686978 (National Center for Advancing Translational Sciences (NCATS), 2013).
Out of some 420,000 compounds screened, about 64,000 (15%) were called active. Inconclusive means that the source gave no clear call. Such entries were picked first, then a sample of the others. Calls follow the shape of the dose curve; as a rule, active = well fitted inhibition curve with a large enough effect; inconclusive = small, poorly fitted or top-dose-only effect; inactive = flat fitted curve, though single readings scatter. Potencies of inconclusive entries are left out as doubtful fits.

test: qHTS for Inhibitors of human tyrosyl-DNA phosphodiesterase 1 (TDP1): qHTS in cells in absence of CPT; settings: DT40 Tdp1-/- hTDP1 cells, no CPT, ATP luminescence, 48 h; activity change, negative = growth inhibition: at 46.2 µM (top of the series); also: nearly all actives have a fitted effect of over 55% in size
In short: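 Seeded 400 DT40-hTDP1 cells/well (vehicle DMSO, no 20 nM CPT); pinned compounds; ≥48 hr at 37 °C; CellTiter-Glo luminescence as viability measure.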
% is scaled to controls: 0 for no effect and ±100 for the full control effect; potency is read from the fitted curve at half-maximal effect; tags tell the direction and shape of the fitted curve.

Row | SMILES | activity change, negative = growth inhibition | Potency
1 | COC(=O)c1sccc1NC(=O)COc1ccc(Cl)cc1Cl | inactive: -9.56% | –
2 | OCCCNc1nc(-c2ccc(Br)cc2)nnc1-c1ccc(Cl)cc1 | – | inconclusive [inhibitor, single point]
3 | CC(C(=O)O)c1ccc2c(c1)CC(=O)c1ccccc1S2 (stereo not drawn) | inactive: -10.6% | –
4 | S=C(NC1CCCC1)N1CCN(c2cccc(Cl)c2)CC1 | – | inconclusive [inhibitor, partial curve, poor fit]
5 | CCOC(=O)N1CCc2c(sc(NCc3cccs3)c2C(=O)Nc2cc(Cl)ccc2OC)C1 | – | inconclusive [inhibitor, single point]
6 | C=CCn1c(SCc2nc3ccccc3[nH]2)nnc1-c1ccncc1 | inactive: -17.1% | –
7 | Cc1ccc(CNC(=O)c2ccccc2CCc2ccccc2)cc1 | inactive: -10.1% | –
8 | CCN(CC)S(=O)(=O)c1cc(NC(=O)C2Cc3ccccc3C(=O)O2)ccc1C (stereo not drawn) | inconclusive: -32.5% [inhibitor] | –
9 | Cc1[nH]c(=S)sc1Cc1ccc(F)cc1 | inconclusive: -32.5% [inhibitor] | –
10 | Cc1ccc(C(=O)N2CCN(c3ncnc4c(C)csc34)CC2)cc1 | – | active: 16.4 µM
11 | COc1ccc(NC(=O)c2ccc(NC3=NC4CS(=O)(=O)CC4S3)cc2)cc1 (stereo not drawn) | inactive: -14.5% | –
12 | CCN(CC)C(=O)c1sc2nc(-c3ccccc3)ccc2c1N | – | inconclusive [inhibitor, single point]
13 | COc1ccccc1N1CCN(C(=O)c2ccc3c(c2)N(Cc2cc(C)ccc2C)C(=O)c2ccccc2S3(=O)=O)CC1 | – | inconclusive [inhibitor, partial curve]
14 | CCOC(=O)C1=C(C)Nc2nnnn2C1c1ccc(OC)c(Br)c1 (stereo not drawn) | – | inconclusive [inhibitor, single point]
15 | CN(Cc1cccc(Cl)c1Cl)CC(O)COc1ccccc1 (stereo not drawn) | – | inconclusive [inhibitor, single point]
16 | O=C(NCCc1ccccc1)c1cc(=O)c2ccccc2o1 | – | inconclusive [inhibitor, partial curve]
17 | CN1CCN(c2c([N+](=O)[O-])cnc3ccccc23)CC1 | inactive: -25.8% | –
18 | Cc1ccc(-c2ccc(CN3C(C(C)C)C(=O)N(Cc4cn(Cc5ccco5)nn4)CCS3(=O)=O)cc2)cc1 (stereo not drawn) | – | active: 18.4 µM
19 | COc1ccc(CCNC(=O)CNCCc2ccc(F)cc2)cc1 | – | inconclusive [inhibitor, single point]
20 | COc1ccc(CN(C(=O)c2cc(=O)c3ccccc3o2)C2CCS(=O)(=O)C2)cc1OC (stereo not drawn) | – | inconclusive [inhibitor, single point]
21 | CCCn1c(C(=O)OC)cc2c1ccn2-c1ccc(F)cc1 | – | inconclusive [inhibitor, single point]
22 | CC(=O)c1cccc(-c2ccnc3c2CC(C(=O)Nc2cccc(N(C)C)c2)O3)c1 (stereo not drawn) | – | inconclusive [inhibitor, single point]
23 | CCOC(=O)C1(CCOc2ccccc2)CCN(Cc2ccc(COC)o2)CC1 | – | inconclusive [inhibitor, single point]
24 | CC(C)(C)OC(=O)N1CCC(c2c(C(=O)N3CCN(c4ccccn4)CC3)cnn2-c2cccc(F)c2)CC1 | – | active: 16.4 µM
25 | S=C(NCc1ccc2c(c1)OCO2)NCc1ccc2c(c1)OCO2 | inactive: -8.6% | –

Row | SMILES | activity change, negative = growth inhibition | Potency
26 | S=c1[nH]nc2c3c4c(sc3ncn12)CCCC4 | inactive: -22.7% | –
27 | Cc1c(NC(=O)C(C)OC(=O)[C@@H](NC(=O)c2ccccc2)C(C)C)c(=O)n(-c2ccccc2)n1C (stereo partly drawn) | inactive: -9.72% | –
28 | C=CCn1c(SCC(=O)N2CCOCC2)nc(O)c(Cc2ccccc2)c1=O | – | active: 13 µM
29 | CCOC(=O)c1c(CSc2ccccc2)oc2ccc(O)cc12 | – | active: 20.6 µM
30 | O=S1(=O)N[C@@H](Cc2ccccc2)COc2cc(N3CC[C@H](O)C3)ccc21 | – | inconclusive [inhibitor, single point]
31 | COc1ccc(C)cc1S(=O)(=O)Nc1cccc(Cl)c1Cl | inactive: -19.3% | –
32 | Nc1cc(=O)[nH]c(SCC(=O)Nc2ccccc2Sc2ccccc2)n1 | – | inconclusive [inhibitor, single point]
33 | CC(C)(C)NC(=O)C(c1ccncc1)n1c(-c2ccc(C(F)(F)F)cc2)nc2ccccc21 (stereo not drawn) | – | inconclusive [inhibitor, single point]
34 | Cc1onc(-c2ccccc2)c1CNC(=O)C1COc2ccccc2O1 (stereo not drawn) | – | inconclusive [inhibitor, single point]
35 | CC(OC(=O)c1ccc(-n2cnnn2)cc1)C(=O)Nc1ccccc1[N+](=O)[O-] (stereo not drawn) | – | inconclusive [inhibitor, single point]
36 | CCOC(=O)c1ccc(NS(=O)(=O)c2ccc3c(c2)CCN3C(=O)CC)cc1 | – | inconclusive [inhibitor, single point]
37 | O=C(COC(=O)c1cccc(O)c1)Nc1ccc(S(=O)(=O)N2CCOCC2)cc1 | inactive: 10.2% | –
38 | O=C1CC(c2ccsc2)c2cc3c(cc2N1)OCCO3 (stereo not drawn) | – | inconclusive [inhibitor, single point]
39 | Cc1cccc(COc2ccc(S(=O)(=O)N3CCOCC3)cc2[N+](=O)[O-])c1 | inactive: -16% | –
40 | Cc1ccc(NC(=O)NCc2ccc3c(c2)OCO3)cc1C | inactive: -22.8% | –
41 | Cc1cccc(C)c1Nc1ncnc(N)c1[N+](=O)[O-] | inactive: -15.5% | –
42 | Cc1ccc(C(=O)NCC(c2ccco2)S(=O)(=O)c2ccccc2)cc1C (stereo not drawn) | – | inconclusive [inhibitor, single point]
43 | O=C(Nc1cccc(OC(=O)c2ccc(Br)o2)c1)c1ccccc1 | inactive: 7.21% | –
44 | COc1cc2c(=O)c(S(=O)(=O)c3ccc(C(C)C)cc3)cn(Cc3ccccc3C)c2cc1OC | – | inconclusive [inhibitor, partial curve]
45 | CCOC(=O)c1c(C)c(-c2ccccc2)n(CC(=O)NCc2ccccc2)c1C | – | inconclusive [inhibitor, partial curve]
46 | O=C(OCC(COC(=O)c1cccnc1)(COC(=O)c1cccnc1)COC(=O)c1cccnc1)c1cccnc1 | inactive: -0.714% | –
47 | CCOc1ccc(NC(=O)N2CCN(Cc3ccc4c(c3)OCO4)CC2)cc1 | inactive: 2.02% | –
48 | CS(=O)(=O)c1cc(C(=O)O)cc(NCc2ccccc2)c1Oc1ccccc1 | – | inconclusive [inhibitor, single point]
49 | COc1ccc(OC)c(NC(=O)C(=O)NNC(=O)COc2ccc(Br)cc2C)c1 | – | inconclusive [inhibitor, partial curve]
50 | O=C(CCCCCCCC(=O)N1CCCCCC1)N1CCCCCC1 | – | inconclusive [inhibitor, single point]

Row | SMILES | activity change, negative = growth inhibition | Potency
51 | CCOC(=O)c1cc(C#N)c(Oc2ccc(F)cc2)nc1-c1ccccc1 | – | inconclusive [inhibitor, single point]
52 | Cc1ccnc(NS(=O)(=O)c2ccc(NC(=O)c3ccc([N+](=O)[O-])s3)cc2)n1 | – | inconclusive [inhibitor, single point]
53 | CC1CCN(c2nc3ccc(C(=O)NCCCN4CCCCC4)cc3s2)CC1 | – | active: 23.1 µM
54 | Cc1cccc(CNC(=O)c2ccc(NC(=O)C3=CSCCO3)cc2)c1 | – | inconclusive [inhibitor, single point]
55 | CCCCOC(=O)Nc1nnc(/C=C/c2ccc(OC)cc2)s1 | – | inconclusive [inhibitor, single point]
56 | O=C(NC1CCN(Cc2ccccc2)CC1)c1c(Cl)cccc1Cl | inactive: -1.03% | –
57 | Oc1c(Cl)cc(Cl)cc1C=Nc1cc(C(F)(F)F)ccc1N1CCc2ccccc2C1 | – | inconclusive [inhibitor, single point]
58 | O=C(Nc1cccc(C(F)(F)F)c1)c1cc2nc(-c3ccco3)cc(C(F)(F)Cl)n2n1 | inactive: -25.3% | –
59 | CCSc1n[nH]c2nc3c(c(=O)n12)C1(CCCC1)Cc1ccccc1-3 | inconclusive: -31.3% [inhibitor] | –
60 | CCN(CC1CCCN(CCc2cccc(F)c2)C1)C(=O)c1ccc(CSC)o1 (stereo not drawn) | – | active: 23.1 µM
61 | COc1ccc(OC)c(NC(=O)COCc2cc(-c3ccco3)on2)c1 | – | inconclusive [inhibitor, partial curve]
62 | Cc1nc(NC(=O)CCN2C(=O)C3CC=CCC3C2=O)sc1C (stereo not drawn) | inactive: 2.03% | –
63 | O=C(COc1ccccc1)N1CCCC1 | inactive: 2.46% | –
64 | CCOC(=O)c1cc(-c2ccccc2)n(CCC(=O)NCCc2ccc(C)cc2)c1C | – | active: 8.2 µM
65 | C/C(=N\NC(=O)c1ccco1)c1ccc(NC(=O)c2cccs2)cc1 | – | inconclusive [inhibitor, partial curve]
66 | CCOC(=O)c1c(C)n(C)c2cc(OCCN(CC)CC)ccc12 | inactive: -0.187% | –
67 | O=C(Cn1c(-c2ccccc2)noc1=O)N1CCC(Cc2ccccc2)CC1 | – | inconclusive [inhibitor, single point]
68 | O=C(c1cc(Cl)cc(Cl)c1)N1CCC(=O)N([C@H](COCc2ccccc2)Cc2ccccc2)CC1 | – | inconclusive [inhibitor, single point]
69 | Cc1nn(C)c(C(=O)Nc2cccc(CN3CCOCC3)c2)c1Br | – | inconclusive [inhibitor, single point]
70 | Cc1ccc(NC(=O)COc2cccnc2[N+](=O)[O-])cc1S(=O)(=O)N1CCCCC1 | – | active: 20.6 µM
71 | Cc1nn(-c2ccccc2)c(OC(=O)c2ccccc2Cl)c1S(=O)(=O)c1ccccc1 | inactive: -24.1% | –
72 | COc1ccc(NC(=S)NCCN2CCOCC2)cc1 | inactive: 9.23% | –
73 | O=C(NCCc1ccccc1)/C(=C\c1cccc([N+](=O)[O-])c1)NC(=O)c1ccco1 | – | inconclusive [inhibitor, single point]
